Source: PubChem BioAssay (NCI)
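Interpolation was linear, between the two tested concentrations surrounding the appropriate level; five concentrations were tested over 48 hours in 96-well plates. Here, GI50 denotes the concentration required for 50% inhibition of growth. Definition used: TGI = concentration required for complete inhibition of growth.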

tested on: NCI-H322M lung; experiment: growth of human tumour cells (NCI), 48 h

SMILES | GI50 | TGI
O=C(COc1ccc(/C=C2/C(=O)Nc3ccc(Cl)cc32)cc1)Nc1ccc(Br)cc1 | 2.37 µM | 11.8 µM
NS(=O)(=O)c1ccc(Nc2nc(N/N=C/c3cc(Br)c(O)c(Br)c3)nc(Nc3ccccc3)n2)cc1 | 14.2 µM | 27.3 µM
COc1cccc2nc(Nc3cccc(NC(=O)c4ccc(CN5CCCN(C)CC5)c(C(F)(F)F)c4)c3)ccc12 | 2.12 µM | 5.82 µM
Cc1cc(=O)oc2cc(OCCCOc3ccc(/C=C/C(=O)Nc4ccccc4N)cc3)ccc12 | 5.14 µM | > 100 µM
